What all share (format): in vivo
The nature of one data set: Pharmacokinetics in rats. On the procedure:
Pharmacokinetics in rats: Sprague-Dawley-derived rats were treated with a single subcutaneous or intravenous dose of GLP-1 MMB of SEQ ID NO 4 (3.0 mg/kg, lot #8833173) (1). Approximately 300 μl of blood were collected at various times following dosing in sodium citrate (3.8%) containing protease inhibitors (Roche Complete EDTA free, Roche Applied Science, Indianapolis, Ind.) and DPP4 inhibitors (Linco, St. Charles, Mo.). Plasma was isolated and stored at −80° until samples could be analyzed. The concentration of intact GLP-1 MMB of SEQ ID NO 4 was measured using a mesoscale discovery (MSD) technology. Briefly, plasma samples were serially diluted by BioMek Fx for a total of 4 dilutions, neat, 1:8, 1:64 and 1:512. Identical standard curves in neat plasma were included on each plate. GLP-1 MMB of SEQ ID NO 4 was captured on MSD plates by biotinylated monoclonal antibody (CNTO1626) designed to detect intact N-terminus of GLP-1 MMB of SEQ ID NO 4. Ruthenium labeled monoclonal antibody recognizing linker region on GLP-1 MMB of SEQ ID NO 4 (CNTO712) were added for detection and the luminescence responses were determined using the MSD sector imager 6000 reader. GLP-1 MMB of SEQ ID NO 4 level was calculated using sigmoidal dose-response curve (GraphPad PRISM).
(§1) Data analysis: Non-compartmental analysis (NCA) was employed to calculate the pharmacokinetic parameters of GLP-1 MMB of SEQ ID NO 4 (WinNonlin, Version 5.1, Pharsight Corporation, Mountain View, Calif.). The maximum serum concentration, Cmax and the time to reach Cmax (Tmax), were obtained from inspection of the serum concentration vs. time profiles. The area under the concentration curve (AUC) from time 0 to the last time point with quantifiable levels of GLP-1 MMB of SEQ ID NO 4 was calculated (AUC (0-7d) for rat, AUC (0-21d) for monkey), as well as the AUC from time 0 to infinity. The AUC values were obtained by linear trapezoidal integration. The terminal rate constant (λz) was determined by least-squares regression analysis of the log-linear portion of the terminal phase. The terminal half-life, t½, was calculated from the ratio of 0.693 and λz.

Data set [1] is described as follows: Pharmacokinetics in monkeys. The conditions noted are these: cynomolgus monkeys, single iv, 1 mg/kg, mean. On the procedure:
Pharmacokinetics in monkeys: Cynomolgus monkeys were dosed intravenously with GLP-1 MMB of SEQ ID NO 4 (1.0 mg/kg, lot #8833013) at Diabetes Research Institute, University of Miami (2). The monkeys were chemically restrained with ketamine HCl (100 mg/mL, 10 mg/kg) prior to dosing and blood collections. GLP-1 MMB of SEQ ID NO 4 was administered at a dose volume of 2.2 mL/kg at a rate of 1 mL/minute. Approximately 2 mL of blood was collected at various time points following dosing in sodium citrate (3.8%) containing protease inhibitors (Roche Complete EDTA free, Roche Applied Science, Indianapolis, Ind.) and DPP4 inhibitors (Linco, St. Charles, Mo.). Plasma was isolated and stored at −80° until samples could be analyzed. GLP-1 MMB of SEQ ID NO 4 concentrations in the plasma was measured as described above.
as §1

In data set [2] the test system is diet-induced obese (DIO) mice. The data set is described as follows: ipGTT in diet-induced obese (DIO) mice, acute pharmacodynamic study. On the procedure: Acute Pharmodynamic Study with GLP-1 MMB.
Materials/Methods: D-glucose was purchased from Sigma. The studies described below used diet-induced obese (DIO) C57B1/6J mice that were started on a diet containing 60.9% fat (Purina TestDiets 58126) at 4 weeks of age. All animals achieved three consecutive weeks of diabetic fasting blood glucose values (>120 mg/dL) prior to their inclusion in the study. ipGTT: Thirty-five mice were fasted overnight (16 hr) and were randomized into 7 groups (n=5) based upon their fasting glucose concentrations. Ten minutes prior to the glucose tolerance test, mice were dosed i.v. with PBS or GLP1 MMB of SEQ ID NO 4 (0.003, 0.01, 0.03, 0.1, 0.3, and 1.0 mg/kg). Five minutes prior to the glucose tolerance test, a fasting glucose measurement was made from tail vein blood. At T=0 min, mice were dosed i.p. with D-glucose (1.0 mg/g). Blood glucose levels were measured at 15, 30, 60, 90, 120, 150 and 180 min using tail vein blood.

[3] abbreviates: SD rats, single iv, 3 mg/kg, mean.
[4] abbreviates: SD rats, single sc, 3 mg/kg, mean.

B1: GLP-1 MMB of SEQ ID NO 4: GLP-1 mimetibody having the sequence of SEQ ID NO 4 (protein)
chain: HSEGTFTSDVSSYLEGQAAKEFIEWLVKGRGGGSGGGSGTLVTNSS[human IgG4 Fc with S228P F234A L235A (EU numbers) omitted]
modifications: fusion protein of GLP-1 variant-linker 3-J region-Hinge H3-Fc
On to B1, for which, in the data set “Pharmacokinetics in rats” (setting [3]), the “AUC(0-7 d)” value worked out at 23.61 µg·days/mL, the AUCinf amounted to 23.86 µg·days/mL, the Cl was found to be 125.90 mL/day/kg and the Cmax came to 53.91 µg/mL. In “Pharmacokinetics in rats” (setting [3]), this molecule showed a volume of distribution (Vss) of 110.07 mL/kg and a t½ of 1.48 days. In the data set “Pharmacokinetics in rats” (setting [4]), the “AUC(0-7 d)” value came to 5.04 µg·days/mL, the AUCinf amounted to 5.20 µg·days/mL, the Cmax turned out to be 2.29 µg/mL and the F % is reported as 21.85%. Besides, in “Pharmacokinetics in rats” (setting [4]), the Tmax was 0.83 days and the t½ was found to be 1.73 days. Besides, the terminal half-life in “Pharmacokinetics in rats” (rats, iv dosing, 3.0 mg/kg) is recorded as 1.5 days. In the data set “Pharmacokinetics in rats” (rats, sc administration, 3.0 mg/kg), the bioavalibility result is recorded as “approximately 22%”. This molecule registered a terminal half-life in “Pharmacokinetics in rats” (rats, sc dosing, 3.0 mg/kg) of 1.7 days. For the same molecule, in data set [1], the “AUC(0-21)” value was found to be 41.92 µg·days/mL, the AUCinf was 42.05 µg·days/mL, the Cl was found to be 24.81 mL/day/kg and the Cmax turned out to be 40.09 µg/mL. Further, in data set [1], the distribution volume (Vss) is reported as 50.18 mL/kg, the Vz turned out to be 105.40 mL/kg and the t½ was 2.93 days. Further, in data set [2] (i.v. 0.01, 0.03, 0.1, 0.3, 1 mg/kg), the “area under the curve of ipGTT relative to the PBS-treated group” value was “significantly reduced”. Further, the “ED50 (ipGTT AUC vs dose)” value in data set [2] (i.v., fit to a hyperbola) stood at 14 µg/kg.

The term Cmax denotes the peak of the concentration-time curve. What is called Vss is the apparent volume that relates the amount in the body to the concentration in plasma or blood. The low end stands for little distribution into tissue, the high end for wide distribution into tissue. As usually defined, the t½ is the time in which the quantity being followed falls by half. Low readings indicate fast loss, high ones slow loss. A word on the Tmax: it is the time from dosing to the highest level. A word on the Vz: it is the apparent volume that relates the amount in the body to the concentration in plasma or blood.
